Results from the supplement of paper PMC3334620.
The full ranking holds about 33,000 sequences; the median of “E-score (-0.5 to 0.5)” is about -0.054, and the highest 2% start at about 0.39. This is one part of the list.

Each sequence was assayed against Ylr278c (UniProt Q05854) (assay: PBM E-score (8-mer binding enrichment) (E-score (-0.5 to 0.5)); higher = stronger / more preferred TF binding; most listed sequences are background and not binding sites). Details: protein concentration: 200 nM; construct: GST-DNA-binding domain.
Procedure, shortened: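 Full-length yeast transcription factors or their DNA-binding domains, GST-tagged and expressed with PURExpress, were applied at about 100-200 nM to universal all-10-mer Agilent arrays. These arrays had been made double-stranded by primer extension on fresh or once-stripped slides. Detection used fluorescent anti-GST, normalisation used masliner, and E-scores for ungapped eight-base words pooled with reverse complements came from the Universal PBM Analysis Suite.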

| Sequence | PBM E-score |
| --- | --- |
| ACACGATA | 0.136 |
| TGGTCCAA | 0.0431 |
| CTAGGGAG | -0.191 |
| ACCTTAGC | 0.0208 |
| CCGTAAGA | 0.0926 |
| CTAGAACA | 0.17 |
| AACCCCGA | 0.431 |
| TGAGCGAA | 0.0115 |
| GGGCCCCC | -0.0037 |
| AGCGTACG | -0.0674 |
| AGGGTCAT | -0.242 |
| AACGTCGT | -0.0374 |
| GTGTAGTA | 0.0761 |
| CTGGCTGA | -0.0217 |
| AGTCGCAA | -0.0612 |
| ATTAATAG | 0.0023 |
| CCCACCAA | -0.022 |
| AAGGCCCT | -0.13 |
| CTCAAAGC | 0.00491 |
| AGTTGGAA | -0.0605 |
| AATCGGTA | 0.0849 |
| TCACCTAA | -0.0532 |
| CATTCGCA | -0.149 |
| GAATGTGA | -0.0742 |
| GAGAGCTC | -0.064 |

| Sequence | PBM E-score |
| --- | --- |
| AGATCCAG | -0.11 |
| ATCAGTTC | -0.109 |
| AATCGCGT | 0.0126 |
| CTCCACTA | -0.189 |
| GAACTGGC | 0.121 |
| CCGAATCG | 0.291 |
| AGACCACA | -0.235 |
| AGAAGAGC | -0.102 |
| ACTACGCG | 0.0549 |
| AAACGTCG | 0.017 |
| AATTATGT | -0.116 |
| CCGTGAGC | 0.236 |
| ACCGTTCC | 0.25 |
| AGAGACGA | -0.0695 |
| GCAGTGGC | -0.00146 |
| CACCAGTA | -0.139 |
| ATAGGGGC | 0.0273 |
| AAACTGGA | -0.14 |
| CATTACAA | -0.076 |
| TCAACCGA | 0.0559 |
| CAGTATGG | -0.195 |
| CGATCGTC | 0.13 |
| CCACAGTC | -0.349 |
| CAGCGTAA | -0.135 |
| AAACATAT | 0.159 |

| Sequence | PBM E-score |
| --- | --- |
| AAGTGCCA | -0.179 |
| GTTGTGGA | -0.0425 |
| CGAAAAAC | 0.0937 |
| GGATGCAA | -0.0219 |
| CCCGTCCC | -0.0309 |
| CGAGCATA | -0.0583 |
| GTAACTGA | -0.292 |
| CAAGGCTC | -0.299 |
| AAGACACT | -0.0702 |
| AGGTCTGG | -0.13 |
| ATATACCC | 0.0752 |
| CGCGAGCG | 0.13 |
| ATGAGAAT | 0.0243 |
| CTATACAG | -0.275 |
| CGCACGAG | -0.0923 |
| AGTTCTTA | -0.0305 |
| CACGTCTA | -0.373 |
| GGTTATAC | -0.162 |
| CGGTGCGC | 0.279 |
| CACTGCTC | -0.0401 |
| GCACCCTA | -0.266 |
| AATCCGTA | 0.195 |
| AATCTTTC | 0.128 |
| GTATGAAC | 0.0609 |
| AATCACTG | -0.0988 |

| Sequence | PBM E-score |
| --- | --- |
| ACACTCGG | 0.17 |
| GCTGGGAC | -0.127 |
| ATACACTG | -0.245 |
| GACATACC | 0.00952 |
| AGAAAGCT | -0.0493 |
| CCGCTAGA | -0.0195 |
| GGGACTGA | -0.136 |
| CTGGATGA | -0.195 |
| AGAAGGTG | -0.0485 |
| AGTAGGAG | -0.1 |
| GGGGTAAA | 0.164 |
| AACAGTCC | -0.104 |
| AGATCGCA | -0.0241 |
| AGGAAGCG | 0.0602 |
| ACGGACCT | 0.288 |
| GGCGGGCA | 0.243 |
| AGGCATCA | -0.289 |
| CGAAGAGA | -0.00422 |
| ACGCCCAG | -0.16 |
| CCGCACCC | 0.266 |
| CGCCGACC | 0.296 |
| TCAGATAA | -0.117 |
| CGCCAGCA | -0.108 |
| TATATGCA | -0.245 |
| GTAGTAGA | -0.138 |

| Sequence | PBM E-score |
| --- | --- |
| CAACAACA | -0.183 |
| CAGTGGAC | -0.146 |
| CGGAGCAG | 0.417 |
| ATGCCTCA | 0.00596 |
| GCTGGCGA | -0.0626 |
| AGTACGAA | 0.0415 |
| TAGTCGAA | -0.13 |
| CGGCGAGA | 0.202 |
| ATGCCACC | -0.208 |
| CTACATAC | -0.0842 |
| ATTATAGC | -0.086 |
| CCTGCATC | -0.183 |
| AATGCCAG | -0.0332 |
| ACGATACT | 0.0467 |
| ATGCGTAG | -0.0723 |
| GATTTAAC | 0.154 |
| CTACGGCA | 0.00652 |
| GTCGTTCA | -0.245 |
| CCGGCCAA | 0.315 |
| GGTTTCTA | 0.0335 |
| CTGTGTTA | 0.0025 |
| ATTATCCA | -0.155 |
| ATTAATCG | 0.218 |
| GGCTCTGA | -0.357 |
| ATCACTTA | -0.2 |

| Sequence | PBM E-score |
| --- | --- |
| GTGGGGCA | -0.062 |
| CTGTAGGC | -0.184 |
| TCTCATCA | -0.183 |
| CACGTTAC | -0.274 |
| CTTACTTA | -0.0395 |
| CTACACTA | -0.317 |
| GGTGTAAA | 0.0406 |
| ATAGTTAC | -0.0396 |
| ACAGGTCG | -0.14 |
| AACCAACC | -0.111 |
| AATTGTGG | -0.166 |
| ATGTCGTG | -0.292 |
| AGTTATAA | -0.195 |
| CTAATTCA | -0.226 |
| CGCATGTA | -0.0916 |
| CGTACAAG | -0.214 |
| AAGCTCGA | -0.043 |
| ACTGTTAC | -0.171 |
| CAGTGAAA | 0.0583 |
| ATGTCTGA | -0.181 |
| CATATTAA | -0.119 |
| ACAGCCGG | 0.322 |
| ACCAAGCA | -0.132 |
| AGTTATGC | 0.0232 |
| ACCGCCTA | 0.00883 |

| Sequence | PBM E-score |
| --- | --- |
| ACAGCACC | 0.0761 |
| CCATTTTC | 0.0765 |
| GGTTTGGA | -0.029 |
| GTGAGGGA | -0.204 |
| TAAGCACA | 0.0569 |
| AATTCTGA | -0.119 |
| GTCCTCAA | -0.0761 |
| CGGGTCCC | 0.0308 |
| CAACGTCG | -0.147 |
| GACGCGGA | 0.291 |
| ATGTGCTC | -0.0292 |
| ATCCCATG | -0.121 |
| ATACACTC | 0.0208 |
| CTCAAGGC | -0.0516 |
| ATCCAGCA | -0.288 |
| CCGCATAC | 0.224 |
| GGTCAGCA | -0.0137 |
| GCGTATAC | -0.00732 |
| AGGAGAAC | -0.00067 |
| CGTTGTAC | -0.0956 |
| ATGGAGTA | 0.0152 |
| GGCAGAAA | 0.155 |
